The structures appear in SMILES notation. Whole data set: some 110,000 compounds, median “z-score” near -0.1, cut for the highest 2% near 2. This is one part of the list. Calls of active or inactive are those of the source.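 The calls were made as follows: active = z-score in the third read window above 3 or below -3; inactive = the rest.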

For this assay, the target named is Metabotropic glutamate receptor 8 (Rattus norvegicus) (UniProt P70579). Nature of the assay: mGluR8 Gi/Go-coupled signaling modulation – cell-based, rat, thallium flux, HTS, primary screen (AID 488969). To be noted: HEK293 rat mGluR8, GIRK (G protein-gated inwardly rectifying potassium channel) thallium flux, FluoZin2; at 10 µM; stronger effect = higher value; submaximal glutamate (EC20) added with thallium.
Chain of UniProt P70579 (P70579 whole entry, looked up): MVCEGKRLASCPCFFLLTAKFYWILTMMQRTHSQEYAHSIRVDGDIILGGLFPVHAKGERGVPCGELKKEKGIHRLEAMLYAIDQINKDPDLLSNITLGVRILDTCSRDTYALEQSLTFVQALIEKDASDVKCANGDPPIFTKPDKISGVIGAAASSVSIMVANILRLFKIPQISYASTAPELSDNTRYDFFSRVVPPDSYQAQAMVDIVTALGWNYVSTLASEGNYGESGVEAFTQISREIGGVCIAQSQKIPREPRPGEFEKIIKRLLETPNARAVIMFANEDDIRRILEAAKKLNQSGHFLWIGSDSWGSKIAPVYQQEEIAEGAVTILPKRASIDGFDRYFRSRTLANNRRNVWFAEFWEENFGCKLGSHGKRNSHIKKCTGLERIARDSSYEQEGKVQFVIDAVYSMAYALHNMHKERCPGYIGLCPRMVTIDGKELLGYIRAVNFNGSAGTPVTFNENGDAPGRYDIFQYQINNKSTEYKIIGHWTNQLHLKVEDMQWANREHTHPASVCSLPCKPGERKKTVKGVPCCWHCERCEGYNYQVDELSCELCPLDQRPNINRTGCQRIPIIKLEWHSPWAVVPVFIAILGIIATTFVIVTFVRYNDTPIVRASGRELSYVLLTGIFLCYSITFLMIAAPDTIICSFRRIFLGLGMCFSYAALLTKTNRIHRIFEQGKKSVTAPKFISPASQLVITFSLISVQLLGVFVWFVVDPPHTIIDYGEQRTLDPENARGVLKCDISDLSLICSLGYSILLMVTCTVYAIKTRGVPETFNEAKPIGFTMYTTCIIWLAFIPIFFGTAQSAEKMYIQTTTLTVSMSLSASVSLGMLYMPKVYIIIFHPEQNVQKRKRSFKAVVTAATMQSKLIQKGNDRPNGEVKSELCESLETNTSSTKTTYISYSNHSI
For the molecule `O=C(Cn1ccc2ccccc2c1=O)NCCC(=O)Nc1ccc2c(c1)OCCO2`, the z-score came to 0.489. The figure for `CC(C)c1ccc(NC(=S)NCCc2c[nH]c3ccccc23)cc1` is -0.264; for `O=C1CC(c2ccccc2)CC(O)=C1C=NC1CCCC1` (stereo unspecified) it is -0.103. The molecule `O=C1c2cccc3cccc(c23)C(=O)N1OS(=O)(=O)c1ccccc1` registered a z-score of -0.152. With `Cc1ccccc1OCCCSc1nc2ccccc2[nH]1`, the z-score was found to be 0.419. `COc1cccc(C2(CSc3nnc(-c4cc(OC)c(OC)c(OC)c4)o3)OCCO2)c1` gave a z-score of -0.328.

`Nn1c(SCC(=O)N2CCOCC2)nnc1-c1ccc(Cl)cc1Cl` came in with a z-score of 0.0848. Consider `CC(=O)Nc1cccc(NC(=O)CSc2nnnn2C(C)C)c1`, for which the z-score came out at 0.073. `CCOC(=O)c1c(-c2cccs2)csc1NC(=O)CC(C)C`: the z-score stood at 0.443. `Cc1nn(CC(=O)Nc2sc3c(c2C#N)CCC(C(C)(C)C)C3)c(C)c1[N+](=O)[O-]` (stereo unspecified): the z-score is -0.313. The figure for `CC(C)c1ccccc1OCC(=O)NCC(c1cccs1)N1CCOCC1` (stereo unspecified) is -0.448; for `Cc1c(C#N)c2ncn(CC#N)c(=O)c2n1-c1ccccc1` it is active: 3.28.

In turn, `Cc1ccc(Oc2ccccc2)c(NC=O)c1` gave a z-score of -0.608. The figure for `Cc1cccc(NC(NC(=O)Cc2ccccc2)C(Cl)(Cl)Cl)c1` (stereo unspecified) is -0.0674; for `N#CC1=C(SCC(N)=O)NC(=O)CC1c1ccccc1Cl` (stereo unspecified) it is 0.0189. As for `COc1ccc(NC(C)=O)cc1NC(=O)CN1CCN(C(=O)c2ccco2)CC1`, the z-score is -0.164. The figure for `CCc1cccc(NC(=O)NC(=O)Cn2nnc(C(=O)OC)c2C(=O)OC)c1` is -0.158; for `Cc1ccccc1CS(=O)(=O)c1snnc1C` it is -0.141. The figure for `COc1ccc(C)cc1NC(=O)CSc1nnc(CC(=O)Nc2ccccc2C)n1C` is -0.0136; for `CCn1cc([N+](=O)[O-])c(C(=O)N2N=C(c3ccc4ccccc4c3)CC2c2cc(Br)ccc2O)n1` (stereo unspecified) it is -0.0686; for `Cc1cc2n(n1)C(c1ccsc1)Nc1ccccc1-2` (stereo unspecified) it is 0.0208. The figure for `CN(C)c1nc(Cl)cc(N2CCOCC2)n1` is 0.432; for `CCCCOC(=O)CNc1n[nH]c(=S)[nH]c1=O` it is 0.182. As to `CCc1cccc(C)c1NC(=O)CCCC(=O)O`, the z-score came out at 0.0858. The figure for `CC(=O)Nc1ccc(S(=O)(=O)Nc2cccc(N(C)S(C)(=O)=O)c2)cc1` is 0.326; for `O=C(Nc1ccc(N2CCN(C(=O)c3ccco3)CC2)cc1)c1cccs1` it is -1.1. For `COc1ccc(-c2ccc(CCC(=O)O)n2NC(=O)c2cccs2)cc1`, the z-score amounted to 0.347. Take `O=C(COC(=O)c1ccccn1)NCCCc1ccccc1`: the z-score is 0.106.

With `Cc1ccc(NC(=O)Nc2ccc3oc(C)nc3c2)cc1`, the z-score was -0.385. The figure for `CC(C)(C)OC(=O)N1CCC(C(=O)O)CC1` is -0.427; for `CC(C)CCNC(=O)c1sc2ccc(S(=O)(=O)N3CCCCC3)cc2c1N` it is -0.0861. For `O=C(/C=C/c1ccc(Cl)c([N+](=O)[O-])c1)Nc1ccc(NC(=O)c2ccco2)cc1`, the z-score was determined as 0.571. On to `CNC(=O)c1ccc(-c2ccc(OC)cc2)s1`, for which the z-score is -0.0761. The figure for `CCn1c(=NC(=O)CN2C(=O)CCC2=O)sc2c(C)cc(C)cc21` is -0.611; for `CCOC(=O)/C(C#N)=C1/C=C(C)NC(c2ccccc2O)=N1` it is -1.53; for `Cn1ccnc1SCC(=O)Nc1ccc(Oc2ccccc2)cc1` it is 2.29. The figure for `CCOC(=O)C1=C(O)/C(=C/c2ccc(C)o2)SC1=NC(=O)c1ccccc1C` is 0.0866. The figure for `Cc1cc(C)c(C#N)c(SCC(=O)N(C)C2CCCCC2)n1` is -0.992; for `CCN1CCN(C(=O)CN(C)S(=O)(=O)c2ccc(OC)cc2)CC1` it is 0.888. Take `CCOC(=O)c1c(C)oc2c1c(C(c1ccccc1)N1CCOCC1)c(O)c1ccccc12` (stereo unspecified): the z-score was -0.228. Consider `Cn1c2ccccc2c2cc(C(=O)O)ccc21`, for which the z-score is 0.933. Molecule `Nc1c(-c2ccccc2)cnn1-c1cccc([N+](=O)[O-])c1` showed a z-score of -0.00911. The figure for `O=C(CNS(=O)(=O)c1ccccc1)NCC(=O)OCc1ccccc1F` is -0.319; for `Cc1ccc(C(=O)N(c2ccccc2)C2CC(C)N(C(=O)c3ccco3)c3ccccc32)cc1` (stereo unspecified) it is -0.203.

As to `O=C(Nn1c(-c2ccccc2)nc2ccccc2c1=O)c1cccs1`, the z-score is 0.0399. Consider `Nn1c(=O)c2ccccc2n2c(SCc3ccc(C(F)(F)F)cc3)nnc12`, for which the z-score is -0.212.

`O=C(CSc1nc(-c2cccs2)cc(C(F)(F)F)n1)NCc1ccco1` returned a z-score of -1.02. The figure for `CC(C)(C)C(=O)N1CCC[C@@]1(CO)C(=O)O` is -0.231. The figure for `Cc1cccc(NC(=O)c2ccc(S(=O)(=O)N(C)C)cc2)c1` is 0.0927. For `CCCCN(CC)CCCNC(=O)C1c2ccccc2C(=O)N(C)C1c1cn(C)c2ccccc12` (stereo unspecified), the z-score amounted to 1.95. The figure for `Cc1ccccc1OCC(=O)N/N=C/c1ccc2c(c1)OCCO2` is -0.285. Turning to `O=C1C(NS(=O)(=O)c2ccc(Cl)cc2)=C(N2CCCCC2)C(=O)c2ccccc21`, the z-score is -0.0684. The figure for `CCSc1nnc(NC(=O)CSc2c(Cl)cccc2Cl)s1` is -0.191; for `Cc1cc2nc(-c3ccc(SCc4ccccc4C#N)nc3)[nH]c2cc1C` it is -0.28; for `Cc1ccc(-c2cc3nc(C)cc(NCc4ccco4)n3n2)cc1` it is -0.267. The molecule `O=C(Nc1cccc2ccccc12)N1CC=C(c2ccccc2)CC1` returned a z-score of 0.499. Take `CCn1c(=O)cc(SCC(=O)NCc2ccc(C)cc2)c2ccccc21`: the z-score is -0.0173. The figure for `O=C(COc1ccc(S(=O)(=O)NC2CCCCC2)cc1Cl)Nc1ccc2c(c1)OCO2` is 0.2. The figure for `Cc1nc(=O)cc(-c2ccccc2)n1-c1ccccc1` is 1.26; for `CC[N+](C)(CC)CC(O)COCC1COc2ccccc2O1` (stereo unspecified) it is -0.0461; for `CC(C)(C)NC(=O)C(=O)N/N=C/c1cccs1` it is -0.177. The figure for `CCCc1nc(SCC(=O)Nc2cc(C)on2)c2c(=O)n(C)c(=O)n(C)c2n1` is 0.613; for `Cc1cc(=O)oc2cc(OCC(=O)N3CCCC(C)C3)ccc12` (stereo unspecified) it is -1.18. With `Cc1ccccc1NC1c2ccccc2C(=O)N1Cc1ccco1` (stereo unspecified), the z-score is -0.438. The figure for `O=C1N(CC(=O)N2CCc3ccccc32)CCN1Cc1ccc(Cl)cc1` is 0.587. The figure for `COc1ccccc1/C=C/C=N/n1c(COc2ccccc2)n[nH]c1=S` is 0.0265. Turning to `CCN1CCN(S(=O)(=O)c2ccc3[nH]c(=O)oc3c2)CC1`, the z-score was 0.161. Take `CCOc1ccc2ccccc2c1C(=O)Nc1cc(=O)n(C)c(=O)n1C`: the z-score is 0.291. `COc1ccc2nc(NC(=O)c3cccnc3SC)sc2c1` showed a z-score of 0.203. The figure for `CCn1c(CSCc2ccc(C)cc2)nnc1SCC(=O)NCc1ccccc1` is -0.133; for `Cc1cc(C)n(-c2nc3ccccc3nc2N2CCN(S(=O)(=O)c3ccc(F)c(C)c3)CC2)n1` it is 0.635. The figure for `O=C(c1cccc(F)c1)N1CCN(c2cc(N3CCCCC3)c(F)cc2[N+](=O)[O-])CC1` is -0.121.

The molecule `Cc1c(C(=O)Nc2ccc(-c3nnc4n3CCCCC4)cc2)oc2ccc(Br)cc12` had a z-score of -0.49. The figure for `CC(CCc1ccccc1)NC(=O)c1ccc(NC(=O)c2ccc(Cl)cc2Cl)cc1` (stereo unspecified) is -0.138; for `CN1CCN(S(=O)(=O)c2cccc(C(=O)Nc3nc(-c4ccccc4)cs3)c2)CC1` it is -0.528. `CC1CCCN(CCC(=O)Nc2ccc(Br)cc2)C1` (stereo unspecified) yielded a z-score of 0.477. The figure for `Oc1c(C(Nc2ccccn2)c2cccnc2)cc(Cl)c2cccnc12` (stereo unspecified) is -0.646; for `COc1ccc(-c2cc(=O)c3ccccc3n2C)cc1` it is -0.189. The figure for `CCn1cnc2cc(NC(=O)c3ccco3)ccc21` is -0.829; for `CS(=O)(=O)N(Cc1ccc(Cl)cc1)c1ccc(C(=O)NCCSc2ccccn2)cc1` it is -0.163. The figure for `CCCNC(=O)CS(=O)Cc1nc(-c2ccccc2C)oc1C` (stereo unspecified) is -0.476; for `CCOC(=O)CC(=O)CSc1[nH]c(=O)cc(C)c1C#N` it is 0.214; for `COC(=O)Cn1nc(-c2ccccc2)c2cc(Cl)ccc21` it is -0.209.

For `CC(C)NCc1cccc([N+](=O)[O-])c1`, the z-score is -0.33.

With `C/C(=N\NC(=O)c1ccc([N+](=O)[O-])cc1)c1cc2ccccc2oc1=O`, the z-score was -0.125. The figure for `O=C(Oc1ccc(-n2cnnn2)cc1)c1ccco1` is 0.442; for `Cc1cc(/C=N/NC(=O)CC2(C)OCCO2)c(C)n1-c1ccc(Cl)c(Cl)c1` it is -3; for `O=C1CN(C(=O)CSc2nnc(C3CC3)n2-c2ccccc2)c2ccccc2N1` it is -0.0948.

`O=C(NC1CCCCC1)c1ccc(N2CCCC2=O)cc1` yielded a z-score of -0.692. The figure for `CSc1nnc(-c2sccc2OCc2ccc(C)cc2)n1C` is -0.444; for `CCC(=O)NNc1cccc(Cl)n1` it is 0.283; for `Fc1ccc(NC(=S)Nc2ccccc2OC(F)F)cc1Cl` it is active: 6.05. On to `Cc1nc2ccccc2c(-c2ccccc2)c1CC(=O)O`, for which the z-score is -0.184. The figure for `Nc1c(C(=O)Nc2ccccc2)sc2nc(-c3ccco3)ccc12` is -0.431; for `COc1ccc(N2CCN(Cc3cc4c(cc3O)CCC4)CC2)cc1` it is 0.133; for `CO[C@@H]1O[C@@H]2COC(c3ccccc3)O[C@@H]2[C@@H](OC)[C@@H]1O` (stereo partly specified) it is 0.672.

The molecule `O=C(Cn1c(=O)oc2ccccc21)Nc1ccc(S(=O)(=O)N2CCCCC2)cc1` came in with a z-score of -0.298. Molecule `COc1ccc(/C=C(/NC(=O)/C=C/c2ccccc2)C(=O)N2CCOCC2)cc1` displayed a z-score of -0.18. In turn, `Cc1nccn1CC(=O)N/N=C/c1ccc(O)c(O)c1` registered a z-score of -0.0858. The figure for `COc1ccc2c(CC(=O)Nc3ccc(OC)c(NS(=O)(=O)c4ccc(F)cc4)c3)coc2c1` is -0.0702; for `Cn1c(SCC(=O)NC2CC2)nnc1-c1cccc(NC(=O)c2ccccc2F)c1` it is -0.214. In turn, `COc1ccc(C)cc1NC(=O)CN1CCN(S(=O)(=O)c2ccc(Br)cc2)CC1` gave a z-score of -0.133. The figure for `CON/C=C(\C=Nc1ccccc1)c1ncc(C(F)(F)F)cc1Cl` is 0.07; for `COc1ccc(C(=O)NNC(=S)NC(=O)c2cc(-c3ccccc3)nc3ccccc23)cc1` it is 2.35. The figure for `CC(C)c1onc(C(=O)NCc2ccc(F)cc2)c1[N+](=O)[O-]` is -0.167; for `CCn1c(CNC(=O)c2ccco2)nnc1SCC(=O)Nc1cc(C)c(C)cc1Br` it is -0.121; for `O=C(NC(=S)Nc1ccc(S(=O)(=O)N2CCCCCC2)cc1)c1cccs1` it is -0.208. The figure for `Cc1cc(C)c(OCC(=O)N/N=C/c2ccco2)c(C)c1` is 0.641. Consider `Clc1ncnc2scc(-c3ccc(Br)cc3)c12`, for which the z-score was found to be 0.0491. Turning to `O=C(COC(=O)c1ccc([N+](=O)[O-])s1)Nc1ccccc1`, the z-score was -0.0827. On to `CC(Oc1ccccc1)c1ccnn1S(C)(=O)=O` (stereo unspecified), for which the z-score is -0.286.

Values taken from PubChem BioAssay AID488969 (Vanderbilt High Throughput Screening Facility, 2010).
